The values below come from article PMC12136788.

This is one part of the list.

First the molecules themselves.
T1: UNK ZnF1-3 (human, UniProt Q9C0B0 31-174)
T1 sequence: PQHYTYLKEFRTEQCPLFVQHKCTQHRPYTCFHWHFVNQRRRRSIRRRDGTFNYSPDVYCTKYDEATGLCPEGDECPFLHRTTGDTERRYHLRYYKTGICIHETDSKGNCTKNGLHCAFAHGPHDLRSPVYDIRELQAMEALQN

B1: 28393762_28401369_261_CDS_ENSMUSG00000004056_ENSMUST00000051356|mouse|control|control (ssRNA)
RNA: GGGAGUUCUACAGUCCGACGAUCCAGGGGGGGUAAGGUCUGGUCAGGGGCCUCGGGCCUCUCCUUAUACCCAAUGAAAGAUCCAUCACUCUUCAGAAGGAAGUACCGUGGCCUCCAGGUCUUGAUGUAUUCACCACGUUUGUGCAACAGAGGAUUGAGCAUCA
B2: chr1:153198750:153198751:+_ENSMUSG00000023150_ENSMUST00000023918|perfect_dup|motif|central (ssRNA)
RNA: GGGAGUUCUACAGUCCGACGAUCUUCUGGAUUGAGAUCAUCAAAUUUAACGUGAGAAAUUCCAUGAGGAUCACUAUCACGGUUAAAGAUUUCAAAUAAAUAGGGACUGCAGCAAGCUAGCACUGCUCUGUGUGCUAACAUUUCCAACAGAGGAUUGAGCAUCA
B3: 152111877_152112083_2306_3pUTR_ENSMUSG00000039068_ENSMUST00000106100|mouse|control|control (ssRNA)
RNA: GGGAGUUCUACAGUCCGACGAUCGUUAUGGGAGCCUUCUGGACCAUCACUCAAAGGCAACAUGGAGUACGAAAGGGAUUCUCCAUCCUUCUUAGGAUCUAAAGGACUUUUUGGUCUAGCGGGCAACCCUACUUUAUCAAAAACCAACAGAGGAUUGAGCAUCA
B4: chr10:61154552:61154553:+_ENSMUSG00000020088_ENSMUST00000020285|mus_mus|motif|central (ssRNA)
RNA: GGGAGUUCUACAGUCCGACGAUCCAGAGCCCAAUGCGCUAUCUGUUCAUAAUUUUAUGAAGUAUGUAAAUUUCAUUUACGGGUUAAAAAAAAAGAAUAGAAAAUCUGGACCAAGUAAAUUGUGAACUGAAAAAGUUAGAGAAGCAACAGAGGAUUGAGCAUCA
B5: chr3:57561382:57561383:-_ENSG00000168374_ENST00000303436|hu_mus|FALSE|FALSE (ssRNA)
RNA: GGGAGUUCUACAGUCCGACGAUCGAGCAGCACUGCAUCCUGCAGCUCAUCUUCCAGAAGCAUUUUCUGCAGCACAGCUGCUCCUUCCUGGAUUCUUUCACGAUCAUUGCUAUCUACCACAAAAAUGAGACCCUGGGUAUUCUGCAACAGAGGAUUGAGCAUCA
B6: 173383957_173384077_3410_3pUTR_ENSG00000113742_ENST00000334035|human|control|control (ssRNA)
RNA: GGGAGUUCUACAGUCCGACGAUCGAGUUUAUAUAUAAACAUCAAAAAUAACAUUUAUACAUUUAUUCUUCAGGAGAGGAAAUGCUAGGUUUCCCACCAGUUGUCAUUAAUUCUAGCUUUGGUAGGUUUCCUGGGGCUUUGACCCAACAGAGGAUUGAGCAUCA

This assay has as its target T1, UNK ZnF1-3. The assay is described as follows: nsRBNS (natural sequence RNA bind-n-seq); RBNS binding buffer (assumed for nsRBNS): 25 mM Tris pH 7.5, 150 mM KCl, 3 mM MgCl2, 0.01% Triton X-100, 500 ug/ml BSA, 20 U/ml SUPERase-In, 4 C; UNK is unkempt and MSI1 is Musashi-1; names of the RNAs are library labels; protein concentration not given here; high values mean tight binding.
The molecule B1 gave a binding signal of 0.777 enrichment R. The same measure for B2: 1.74 enrichment R; for B3: 1.18 enrichment R; for B4: 2.05 enrichment R. On to B5, for which the binding signal worked out at 0.722 enrichment R. The same measure for B6: 0.914 enrichment R.
